Hit rate of the full screen: of about 48,000 compounds, about 550 (1.1%) were called active. Inconclusive results (about 4%) are left out. Cut-off read from the data, not from the text of the source: active = potency below about 15 µM; inconclusive = mostly about 16 µM to 33 µM; inactive = weaker than that. The list shows a part of the results.
Each compound was assayed against Lysosomal acid glucosylceramidase (Homo sapiens) (UniProt P04062) (assay: Glucocerebrosidase). Settings: purified enzyme, resorufin glucoside fluorescence (screen aimed at inhibitors), 20 min.
Summary of the method: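 Normal human glucocerebrosidase (0.2 nM final) was assayed with resorufin β-D-glucopyranoside (30 uM final) in 50mM citric acid/KH2PO4, 10mM sodium taurocholate, 0.01% tween-20, pH 5.9. Compounds were titrated; fluorescence (Ex 548, Em 600) read after 20 min at RT.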
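Note: the screen sought inhibitors.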
Potency is the fitted concentration of half-maximal effect.

Chain of UniProt P04062 (P04062 whole entry, looked up): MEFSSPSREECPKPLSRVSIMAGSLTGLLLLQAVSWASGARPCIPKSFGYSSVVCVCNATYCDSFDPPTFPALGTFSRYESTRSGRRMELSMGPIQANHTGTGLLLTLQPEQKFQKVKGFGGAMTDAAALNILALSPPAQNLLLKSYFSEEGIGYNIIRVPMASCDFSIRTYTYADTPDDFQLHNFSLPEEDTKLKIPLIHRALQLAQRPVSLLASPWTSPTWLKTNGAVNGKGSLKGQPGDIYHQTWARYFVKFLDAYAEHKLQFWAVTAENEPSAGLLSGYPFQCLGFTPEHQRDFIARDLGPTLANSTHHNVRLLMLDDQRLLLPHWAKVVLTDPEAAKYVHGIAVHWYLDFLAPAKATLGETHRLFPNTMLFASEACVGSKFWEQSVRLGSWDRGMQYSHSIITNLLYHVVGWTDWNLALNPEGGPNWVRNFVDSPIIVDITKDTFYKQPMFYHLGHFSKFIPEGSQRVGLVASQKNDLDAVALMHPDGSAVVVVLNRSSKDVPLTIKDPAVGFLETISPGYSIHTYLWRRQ

Potency, inactive:
Cc1cccc(/N=C/c2c(O)cc(C)oc2=O)n1 > 76.9 µM
Cn1ccnc1SCc1cn2ccccc2n1 > 76.9 µM
Cc1nc(Cl)sc1C(=O)O > 76.9 µM
CCOC(=O)C1CCCN(C2CC(=O)N(c3cccc(C)c3)C2=O)C1 (centres undefined) > 76.9 µM
O=C(Nc1nc(-c2ccc3c(c2)OCCO3)cs1)c1ccc(S(=O)(=O)N2CCCCC2)cc1 > 76.9 µM
COc1ccc(CCNC(=O)c2cc(-c3ccccc3)on2)cc1OC > 76.9 µM
COc1cccc(-c2csc(N3CCN(C(=O)C4CCCCC4)CC3)n2)c1 > 76.9 µM
C/C(Cl)=C/Cn1c(SCc2ccc(Cl)cc2)nc2c1c(=O)[nH]c(=O)n2C > 76.9 µM
CCN=C1SC(C(=O)NCCc2ccccc2)CC(=O)N1CC (centres undefined) > 76.9 µM
CCOc1ccccc1Nc1nnc(SCC(=O)N2CCCC2)s1 > 76.9 µM
COc1ccc(C(=O)c2ccc(OC)c(OC)c2)cc1OC > 76.9 µM
CC(=O)Nc1ccc(S(=O)(=O)N(C)c2ccc(O)cc2)cc1 > 76.9 µM
O=S(=O)(NCc1cn2ccccc2n1)c1cc(F)ccc1F > 76.9 µM
CCc1nnc(NC(=O)CSc2nnc(COc3ccccc3C)o2)s1
O=S(=O)(c1ccc2c(c1)C(=NO)c1cc(S(=O)(=O)N3CCCCC3)ccc1-2)N1CCCCC1
CC1=C(C(N)=O)C(c2cccc(OCc3ccccc3)c2)n2nnnc2N1 (centres undefined) > 76.9 µM
CCOC(=O)C1=C(C)Nc2nc(SC)nn2C1c1ccc(C(=O)OC)cc1 (centres undefined) > 76.9 µM
Cn1cnnc1SCc1ccc(C#N)cc1 > 76.9 µM
OCC1OC(n2nc3ccccc3n2)C(O)C(O)C1O (centres undefined) > 76.9 µM
CCCc1cc(C(N)=S)ccn1 > 76.9 µM
NC(=O)CSc1nc(O)cc(=O)n1-c1ccccc1 > 76.9 µM
Cc1cccc(-c2nnc(-c3ccc(N)cc3)o2)c1 > 76.9 µM
Cc1ccc(C2CC(=O)c3cnc(N4CCN(c5ccccc5)CC4)nc3C2)cc1 (centres undefined) > 76.9 µM
O=C(COC(=O)c1cnccn1)Nc1ccc2c(c1)OCO2 > 76.9 µM
c1ccc(-c2nc(NCc3ccco3)c3ccccc3n2)nc1 > 76.9 µM
N=C1C(c2nc3ccccc3[nH]2)=C(O)CN1c1ccccc1 > 15.4 µM
CN(C#N)c1nc(N2CCOCC2)nc(N2CCOCC2)n1 > 76.9 µM
CCS(=O)(=O)N1CCC(NC(C)=O)(c2ccccc2)CC1 > 76.9 µM
CCNC(=O)C1CCCN1S(=O)(=O)c1ccc(OC)cc1 (centres undefined) > 76.9 µM
O=C(C1CCC(=O)N1C1CCCCC1)N1CCN(c2ccc(F)cc2)CC1 (centres undefined) > 76.9 µM
COC(=O)c1cc(NC(=O)CSc2nc(C)cc(=O)[nH]2)cc(C(=O)OC)c1 > 76.9 µM
CC(OC(=O)c1cccs1)C(=O)NCC1CCCO1 (centres undefined) > 76.9 µM
CCOC(=O)c1c(NC(=O)OC)sc2c1CCC2 > 76.9 µM
CCOC(=O)c1ccc(NC(=O)CSc2nnc(-c3cccs3)n2C)cc1 > 76.9 µM
Clc1ccc(-n2nnnc2-c2ccccc2)cc1 > 76.9 µM
CN(c1ccccc1C(=O)O)S(C)(=O)=O > 76.9 µM
CCN(C(=O)CN1CCN(c2ccccc2)CC1)c1c(N)n(Cc2ccccc2)c(=O)[nH]c1=O > 76.9 µM
COc1cc(C(=O)Nc2nc3ccc(S(=O)(=O)N4CCOCC4)cc3s2)cc(OC)c1OC > 76.9 µM
O=C(Nc1nccs1)C1CCN(S(=O)(=O)c2ccc3c(c2)OCCCO3)CC1 > 76.9 µM
COc1ccc(C(CNC(=O)c2ccc3c(c2)C(=O)N(CCC(C)C)C3=O)N2CCOCC2)cc1 (centres undefined)
O=C(NCCN1CCOCC1)N1CCOCC1 > 76.9 µM
CN(C)C(=O)Cn1c(SCC(=O)N2CCCc3ccccc32)nc2ccccc21 > 76.9 µM
O=C(NCc1cccs1)C1CC(c2ccccc2O)=NO1 (centres undefined) > 76.9 µM
CCCCc1nc2n[nH]c(N)c2c2c1CCC2 > 76.9 µM
O=C(CNC(=O)Cn1ccc2ccccc2c1=O)NCCCN1CCCCCC1 > 76.9 µM
O=C(CCC1N=C2c3ccccc3N=C(SCc3cccc(Cl)c3)N2C1=O)NCc1ccco1 (centres undefined) > 76.9 µM
CCOC(=O)N1CCC(N(CCCOC)C(=O)Nc2cccc(OC)c2)CC1 > 76.9 µM
Cc1cccc(NCC(O)Cn2cnc3c2c(=O)n(C)c(=O)n3C)c1 (centres undefined) > 76.9 µM
O=c1c(Cc2ccccc2)c(O)nc2n1CCS2 > 76.9 µM
CC(C)c1ccc(-c2nc(N3CCCC3)nc3n[nH]c(N)c23)cc1 > 76.9 µM
CC(C)(C)n1nnnc1C(c1ccc2ncccc2c1)N1CCSCC1 (centres undefined) > 76.9 µM
CN(Cc1cccs1)c1ncnc2sccc12 > 76.9 µM
CCNC(=O)CC1SC(=Nc2cccc(Cl)c2C)N(C)C1=O (centres undefined) > 76.9 µM
Cc1[nH]c(=O)[nH]c(=O)c1S(=O)(=O)N(C)Cc1ccccc1 > 76.9 µM
COc1ccccc1CNC(=O)c1ccc(CS(=O)(=O)c2ccccc2OC)o1 > 76.9 µM
OC1CCCCC1Sc1nc2ccccc2s1 (centres undefined) > 76.9 µM
COc1ccccc1Nc1nc(N)nc(CSc2ncccn2)n1 > 76.9 µM
O=C1NCN(c2ccccc2)C12CCN(c1nnnn1-c1ccccc1)CC2 > 76.9 µM
Cc1nc2ncnn2c(C)c1CCC(=O)N1CCc2ccccc21 > 76.9 µM
COc1cccc(NC(=O)N2CCN(Cc3nc4ccccc4c(=O)[nH]3)CC2)c1 > 76.9 µM
CCn1c(SCc2ccc(OC)cc2)nnc1-c1ccncc1 > 76.9 µM
CNc1ccccc1-n1ccc(-c2ccccc2)n1 > 76.9 µM
Cc1cc(O)c(C(C)C)cc1NC(=O)Cn1nc(C)c2ccccc2c1=O > 76.9 µM
O=C(NCc1ccccc1)c1n[nH]nc1-c1ccccc1O > 76.9 µM
O=C(CSc1ncccn1)NC(=O)NCc1ccccc1 > 76.9 µM
CCn1c(COc2ccccc2C)nnc1SCC(=O)NCc1ccccc1 > 76.9 µM
O=C(COC(=O)c1ccc(N2CCCC2=O)cc1)NCc1ccco1 > 76.9 µM
O=C1NCCCC2c3cc(O)c4ccccc4c3OC12N1CCCCC1 (centres undefined) > 76.9 µM
COc1ccc(N2CCN(Cc3cc(=O)oc4cc(-c5ccccc5)c(O)cc34)CC2)cc1 > 76.9 µM
Clc1ccc(CSc2nnc(Cn3cnc4ccccc43)o2)cc1 > 76.9 µM
CCNC(=O)CC1C(=O)N(c2cccc(OC)c2)C(=O)N1CCOC (centres undefined) > 76.9 µM
COC(=O)C1=C(C)OC(N)=C(C#N)C1c1cc(OC)ccc1OC (centres undefined) > 76.9 µM
COC(=O)c1cn(-c2ccccc2)nc1C(=O)OC > 76.9 µM
O=C1SC(c2ccccc2)=N/C1=C/c1ccco1 > 76.9 µM
Cc1ccc(C(C)C)c(OCc2ccc(-c3nnco3)cc2)c1 > 76.9 µM
CCOC(=O)C1=C(C)OC(N)=C(C#N)C1c1cc(OC)c2c(c1)OCO2 (centres undefined) > 76.9 µM
O=C(O)C1CCCN1C(=O)c1cccs1 (centres undefined) > 76.9 µM
Cn1c(=O)c(C(=S)NC(=O)C2CC2)c(N)n(Cc2ccccc2)c1=O > 76.9 µM
COC(=O)c1sc(NC(=O)c2cc3c(s2)CCCC3)nc1C > 76.9 µM
Cc1ccn2cc(C(=O)Nc3nnc(C)s3)nc2c1 > 76.9 µM
Cn1c(SCC(=O)NCc2ccc(F)cc2)nc2ccccc21 > 76.9 µM
C=CCNC(=O)CN(c1ccc(F)c(Cl)c1)S(C)(=O)=O > 76.9 µM
CCOC(=O)CCN(Cc1cccs1)S(=O)(=O)c1ccc(Cl)cc1 > 76.9 µM
O=C1c2ccccc2C(=O)N1CCn1c(=O)oc2ccccc21 > 76.9 µM
Cc1cc2c3c(c1C)C1(C(=O)N3C(C)(C)CC2C)C(C#N)=C(N)Oc2n[nH]c(C)c21 (centres undefined) > 76.9 µM
Cc1sc2nc(SCC(=O)OC(C)C)n(C)c(=O)c2c1C > 76.9 µM
CN1CCN(P(=O)(c2ccccc2)c2nc3ccccc3s2)CC1 (centres undefined) > 76.9 µM
COC(=O)c1ccc(CSc2nccn2C)cc1 > 76.9 µM
Cn1c(=O)c2c(nc(CN3CCN(C(=O)c4ccco4)CC3)n2Cc2ccc(F)cc2)n(C)c1=O > 76.9 µM
O=C(NCCN1CCN(Cc2ccccc2)CC1)C1c2ccccc2C(=O)N2CCc3ccccc3C12 (centres undefined) > 76.9 µM
c1ccc(-c2nnc(SCc3cn4ccsc4n3)o2)cc1 > 76.9 µM
CC(C)CC(c1nnnn1C(C)C)N1CCN(c2cccc(Cl)c2)CC1 (centres undefined) > 76.9 µM
Cc1ccc(C(=O)NCc2cccs2)cc1S(=O)(=O)N1CCCCC1 > 76.9 µM
CC(=O)Oc1ccc2c(C)c(CC(C)O)c(=O)oc2c1 (centres undefined) > 76.9 µM

Source: PubChem BioAssay AID360 (National Center for Advancing Translational Sciences (NCATS), 2006)
